Data taken from PubChem BioAssay AID686978 (National Center for Advancing Translational Sciences (NCATS), 2013).
Hit rate of the full screen: of about 420,000 compounds, about 64,000 (15%) were called active. This list was built around the results that the source calls inconclusive (neither active nor inactive); the mix of calls is not that of the screen. The call rests on the fitted dose curve; in most records, active means well fitted inhibition curve with a large enough effect; inconclusive means small, poorly fitted or top-dose-only effect; inactive means flat fitted curve, though single readings scatter. No potency is given beside an inconclusive call; the fits are too rough.

Assay: qHTS for Inhibitors of human tyrosyl-DNA phosphodiesterase 1 (TDP1): qHTS in cells in absence of CPT; further: nearly all actives have a fitted effect of over 55% in size
Conditions: DT40 Tdp1-/- hTDP1 cells, no CPT, ATP luminescence, 48 h; activity change, negative = growth inhibition: at 46.2 µM (top of the series) unless noted
Procedure, shortened: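 Chicken DT40 Tdp1-/- cells complemented with human TDP1, screened without camptothecin (DMSO vehicle only), 400 cells/well. Compounds pin-transferred, cells incubated at 37 °C for at least 48 hr. Growth read as ATP-dependent luminescence (CellTiter-Glo, 30 min at RT).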
On the % scale 0 is the no-effect control and ±100 the full control effect; potency means the concentration at half of the fitted maximal effect; tags describe the fitted curve by direction and shape.

Compound | Potency | activity change, negative = growth inhibition
O=C(Cc1ccc(Cl)cc1)Nc1cc(S(=O)(=O)N2CCOCC2)ccc1N1CCCC1 | inconclusive [inhibitor, single point] | –
O=C(Nc1ccccc1)Nc1ccc(C(=O)N2CCOCC2)cc1 | inconclusive [inhibitor, partial curve] | –
Cc1ccc(C(O)CSc2nnc(-c3ccc4ccccc4c3)n2C)cc1 (centres undefined) | inconclusive [inhibitor, partial curve, poor fit] | –
CC(C)(C)NC(=O)/C=C/c1ccc(C(F)(F)F)cc1 | inconclusive [inhibitor, single point] | –
CCc1ccc(CN2CCN(c3ncccn3)CC2)cc1 | inconclusive [inhibitor, single point] | –
OC(c1ccccc1)c1ncc(-c2cccc(F)c2)[nH]1 (centres undefined) | – | inactive: -15.2%
CN1/C(=C/C(=O)c2nc(S(C)(=O)=O)ncc2Cl)C(C)(C)c2ccccc21 | active: 0.461 µM | –
Cc1nnc(SCCn2c(N3CCCC(C)C3)nc3c2c(=O)n(C)c(=O)n3C)s1 (centres undefined) | – | inconclusive: -32.5% [inhibitor]
COc1ccc(C2c3ccc4ccccc4c3Oc3ncn(CCN4CCOCC4)c(=N)c32)cc1OC (centres undefined) | active: 14.6 µM | –
CC1=C(C(=O)Nc2cccc(C(=O)NCC(C)c3ccccc3)c2)SCCO1 (centres undefined) | inconclusive [inhibitor, single point] | –
COC(=O)c1cc(CNC(=O)c2ccc3ncccc3c2)cc(NC(=O)c2ccccc2Cl)c1 | inconclusive [inhibitor, single point] | –
O=C(NCC1CCCO1)c1c[nH]c2ccc(S(=O)(=O)Nc3cccc(C(F)(F)F)c3)cc2c1=O (centres undefined) | inconclusive [inhibitor, single point] | –
Cc1ccc2c(c1)cc1c(=O)n(CC(=O)N3CCCCC3)nc(C)n12 | inconclusive [inhibitor, single point] | –
O=C1c2cccc(-c3ccc(C(F)(F)F)cc3)c2C2CC=CCN12 (centres undefined) | inconclusive [inhibitor, single point] | –
O=C(/C=C\c1ccccc1)Nc1ccc(NC(=O)c2ccco2)cc1 | active: 23.1 µM | –
FC(F)(F)c1cccc(N2CCN(C(=S)NCC3CCCO3)CC2)c1 (centres undefined) | active: 23.1 µM | –
CCc1nc2c(OCc3ccc(Cl)cc3)cccn2c1N(C)C(=O)c1ccncc1 | active: 20.6 µM | –
Cc1cccc(N(C)C(=O)CSc2nc3ncccc3o2)c1 | inconclusive [inhibitor, partial curve] | –
C=CCn1c(SCc2nc3sc(C(=O)O)c(C)c3c(=O)[nH]2)nnc1-c1ccccc1 | – | inactive: -0.7%
CC(C)CCn1cnc2c(sc3nc4c(cc32)CSC(C)(C)C4)c1=O | active: 16.4 µM | –
C[C@@]12CCC=C[C@H]1[C@H](c1ccc3ccccc3c1/C=C/c1ccccc1)N(Cc1ccccc1)C2=O | inconclusive [inhibitor, single point] | –
O=C(CCNS(=O)(=O)c1ccc(Cl)cc1)N1CCC2(O)CCCCC2C1 (centres undefined) | inconclusive [inhibitor, single point] | –
COc1cc(OC)c(NC(=O)CN(C)S(=O)(=O)c2ccc3[nH]c(=O)oc3c2)cc1Cl | – | inactive: 10.3%
COc1ccc(N(CC(=O)NCCSc2ccc(C)cc2)S(=O)(=O)c2ccccc2)c(OC)c1 | inconclusive [inhibitor, single point] | –
O=C(Nc1cccc2c1CCCC2)c1ccc(Br)o1 | – | inconclusive: -30.1% [inhibitor]

Compound | Potency | activity change, negative = growth inhibition
Cc1ccc(S(=O)(=O)N2CCOCC2)cc1NC(=O)C1CC(=O)N(c2ccc3c(c2)OCCO3)C1 (centres undefined) | inconclusive [inhibitor, single point] | –
COc1ccc(Br)cc1CN(C)CC(=O)Nc1c(Cl)cccc1Cl | active: 23.1 µM | –
Cc1cccc(C)c1NC(=O)Nc1cccs1 | active: 18.4 µM | –
CC(=O)N(c1ccccc1)c1ccc([N+](=O)[O-])cc1[N+](=O)[O-] | inconclusive [inhibitor, partial curve] | –
CCC1CCCCN1CCCNC(=O)C1CCN(Cc2nc(-c3ccc(Cl)cc3)oc2C)CC1 (centres undefined) | active: 2.59 µM | –
CC(C)c1c(C(=O)NCCN2CCOCC2)cnn1-c1nccc(-c2cccs2)n1 | inconclusive [inhibitor, single point] | –
COc1cc(OC)cc(-c2nnc(SCC(=O)N3CCCC3)o2)c1 | – | inactive: -26.8%
Cc1cnc(CNc2ccnc(-c3ccccc3C)n2)cn1 | – | inactive: -5.6%
O=C(OCC(O)C(O)C(O)C(SCc1ccccc1)SCc1ccccc1)c1ccccc1 (centres undefined) | inconclusive [inhibitor, partial curve] | –
CC(CNS(=O)(=O)c1cc(Cl)ccc1Cl)CN(C)C (centres undefined) | – | inactive: 1.78%
Cc1cccc(N(C)C(=O)CCNS(=O)(=O)c2ccc3c(c2)CCN3C(=O)C2CC2)c1 | active: 20.6 µM | –
COc1cccc2c(=O)c(C/C=C(/C)Cl)c(C)[nH]c12 | – | inconclusive: -30.3% [inhibitor]
N#Cc1ccc(CSc2nc3c(c(=O)[nH]2)CCCC3)cc1 | inconclusive [inhibitor, single point] | –
CC(/C=C/c1cccc(Oc2ccc(F)cc2)c1)N(O)C(N)=O (centres undefined) | inconclusive [inhibitor, single point] | –
O=C(c1ccc2snnc2c1)N1CCN(c2ccccn2)CC1 | – | inactive: -9.48%
O=C(NS(=O)(=O)Oc1ccc(F)c(Cl)c1)OC[C@@H]1CCCN2CCCCC12 (some centres undefined) | – | inactive: 2.93%
CC(OC(=O)c1cc(-c2cccnc2)nc2ccccc12)C(=O)Nc1ccc2ccccc2c1 (centres undefined) | active: 18.4 µM | –
O=C(c1cn(Cc2ccccc2)nc1-c1cccnc1)N1CCc2ccccc2C1 | inconclusive [inhibitor, single point] | –
COc1ccc2c(C#CCCO)c(-c3ccc(S(C)(=O)=O)cc3)sc2c1 | inconclusive [inhibitor, single point] | –
C[C@H](CO)N1C[C@H](C)[C@@H](CN(C)S(=O)(=O)c2ccc(C#N)cc2)OCc2cn(nn2)CCCC1=O | – | inactive: -2.88%
O=C(Nc1cnc2ccccc2c1)c1ccncc1 | inconclusive [inhibitor, single point] | –
Cn1cc(NC(=O)Nc2ccc(C(F)(F)F)cc2)c(C(F)(F)F)n1 | inconclusive [inhibitor, single point] | –
COC(=O)C1CCN(C(=O)CN2C(=O)c3ccccc3S2(=O)=O)CC1 | – | inactive: -2.95%
Nc1ccc(-c2nnc(-c3ccc(-c4ccccc4)cc3)o2)cc1 | inconclusive [inhibitor, single point] | –
CC(C)COP(=O)(OCC(C)C)C(O)c1ccc(F)cc1 (centres undefined) | – | inactive: -18.4%

Compound | Potency | activity change, negative = growth inhibition
O=C(N/N=C/c1ccc2ccccc2c1)c1ccc(COc2ccc3c(c2)CCC3)o1 | inconclusive [inhibitor, partial curve] | –
CCC(C)(C)NC(=O)C(c1cccnc1)N(C(=O)c1csnn1)c1ccc(C)cc1 (centres undefined) | – | inactive: -23.7%
Nc1nc(-c2ccco2)nn1S(=O)(=O)c1ccc(Cl)cc1 | – | inactive: -22.5%
CCC(C)NC(=O)CNC(=O)c1nn(-c2ccc(OC)c(Cl)c2)c(=O)c2ccccc12 (centres undefined) | – | inconclusive: -32.8% [inhibitor]
O=C1/C(=C/c2ccccn2)SC(=S)N1N1CCOCC1 | – | inactive: -20.9%
CC(NC(=O)c1ccc(CS(C)(=O)=O)cc1)C1CC2CCC1C2 (centres undefined) | – | inactive: -14.1%
CN(CCOc1ccc(Cl)cc1)c1ccc(S(=O)(=O)N2CCCCC2)cn1 | active: 23.1 µM | –
COc1ccc(S(=O)(=O)NCC2CC3C=CC2C3)cc1OC (centres undefined) | – | inconclusive: -35.7% [inhibitor]
Cc1ccc(C)c(CS(=O)(=O)c2cn(CC(=O)N(C(C)C)C(C)C)c3ccccc23)c1 | active: 11.6 µM | –
O=C(CCc1c[nH]c2ccccc12)N1CCN(S(=O)(=O)c2ccc([N+](=O)[O-])cc2)CC1 | inconclusive [inhibitor, partial curve] | –
O=C(Nc1c(C(=O)Nc2ccccc2F)oc2ccccc12)c1cc2ccccc2o1 | inconclusive [inhibitor, full curve] | –
O=C(CN1CCC(n2nnc3cc(F)ccc32)CC1)Nc1ccc2c(c1)CCC2 | inconclusive [inhibitor, partial curve] | –
O=C1C(Cl)=C(NCc2ccco2)C(=O)c2ccccc21 | active: 8.2 µM | –
COc1ccc(Cl)cc1NC(=O)CN(C)C(=O)CCNC(=O)c1ccccc1OC | inconclusive [inhibitor, single point] | –
CC(C)(C)OC(=O)NCCCCCNC(=O)c1[nH]cnc1C(=O)N[C@@H](CCCCNC(=O)OC(C)(C)C)C(=O)OC(C)(C)C | active: 16.4 µM | –
O=C(O)c1ccccc1C(=O)Nc1ccccn1 | – | inactive: -3.97%
Cc1ccccc1C(=O)NC1CC2CCCC(C1)N2Cc1ccc(Cl)cc1 (centres undefined) | inconclusive [inhibitor, partial curve, poor fit] | –
Cc1ccc(N2C(=O)C3NN=C(C(=O)OCc4ccccc4)C3C2=O)c(C)c1 (centres undefined) | – | inactive: -5.02%
CCn1c(=O)c2[nH]c(SC)nc2n(CC)c1=O | – | inactive: -7.78%
COc1cc(SC#N)ccc1N=Cc1c(C)[nH]n(-c2ccc(C)cc2C)c1=O | active: 14.6 µM | –
OCCC1CN(CC2CCCCC2)CCN1C1CCCC1 (centres undefined) | – | inactive: -11.1%
COC(=O)CCC1(C(N)=O)CCC(=O)c2ccccc21 (centres undefined) | – | inactive: 0.165%
CCOc1ccc(C2C(=O)N(C3CCCCC3)CC(=O)N2C2CCCC2)cc1OC (centres undefined) | inconclusive [inhibitor, single point] | –
COc1cc(NC(=O)Cc2c(C(=O)O)c(C)cn2C)cc(OC)c1 | – | inactive: -11.1%
